# Over roughly 33,000 sequences, “E-score (-0.5 to 0.5)” has its median near -0.035; the highest 2% begin near 0.35. This is one part of the list.
# Target: T1, Pdr3 (UniProt P33200)
# T1 sequence: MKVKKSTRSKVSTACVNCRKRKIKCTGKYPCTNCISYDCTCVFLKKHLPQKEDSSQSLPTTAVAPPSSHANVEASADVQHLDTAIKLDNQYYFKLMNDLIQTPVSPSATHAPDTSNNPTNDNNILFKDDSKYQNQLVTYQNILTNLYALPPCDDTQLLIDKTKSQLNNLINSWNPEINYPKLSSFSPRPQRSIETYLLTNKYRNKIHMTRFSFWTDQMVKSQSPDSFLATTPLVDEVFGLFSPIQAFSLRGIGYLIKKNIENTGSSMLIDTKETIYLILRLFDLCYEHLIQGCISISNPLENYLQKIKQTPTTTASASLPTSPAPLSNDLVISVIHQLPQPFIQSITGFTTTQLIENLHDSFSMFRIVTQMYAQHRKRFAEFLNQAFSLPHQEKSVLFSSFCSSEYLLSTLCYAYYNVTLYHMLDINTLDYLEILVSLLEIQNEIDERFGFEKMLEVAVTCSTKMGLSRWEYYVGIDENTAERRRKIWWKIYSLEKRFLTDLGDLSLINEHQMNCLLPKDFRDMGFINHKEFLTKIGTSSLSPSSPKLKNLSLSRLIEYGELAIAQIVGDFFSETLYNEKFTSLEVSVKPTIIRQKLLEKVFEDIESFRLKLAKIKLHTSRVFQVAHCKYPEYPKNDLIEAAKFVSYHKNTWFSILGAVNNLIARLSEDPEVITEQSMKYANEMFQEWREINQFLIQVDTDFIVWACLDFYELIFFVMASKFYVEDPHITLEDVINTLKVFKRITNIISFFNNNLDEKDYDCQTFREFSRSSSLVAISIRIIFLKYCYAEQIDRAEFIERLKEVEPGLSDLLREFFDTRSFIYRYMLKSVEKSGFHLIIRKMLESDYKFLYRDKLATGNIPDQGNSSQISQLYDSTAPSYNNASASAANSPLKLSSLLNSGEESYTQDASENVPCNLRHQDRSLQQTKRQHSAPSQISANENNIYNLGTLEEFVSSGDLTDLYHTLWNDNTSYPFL
# Experiment: PBM E-score (8-mer binding enrichment) (E-score (-0.5 to 0.5)); higher = stronger / more preferred TF binding; most listed sequences are background and not binding sites
# Settings: protein concentration: 200 nM; construct: GST-full length
# Experimental: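 Universal 'all 10-mer' protein binding microarrays (Agilent AMADID 015681) probed with GST-tagged S. cerevisiae TFs (full-length or DBD) made by in vitro transcription/translation (PURExpress), about 100-200 nM. Bound TF was detected with fluorescent anti-GST. Each ungapped 8-mer (which stands for itself and its reverse complement) is scored by the PBM enrichment score (E-score), a modified Wilcoxon-Mann-Whitney statistic from -0.5 to +0.5, computed with the Universal PBM Analysis Suite. Scale: above 0.35 generally sequence-specific binding.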
row,Sequence,PBM E-score
1,ATTCGCTG,-0.0287
2,AACCGCTT,-0.0131
3,ATCGGGAG,0.162
4,GACCGCGC,0.199
5,CGAGAAAC,0.0825
6,ACCTCAGT,-0.1
7,AGTGAGTC,-0.161
8,AAGCGTTA,-0.163
9,ATTTAGAG,0.0391
10,GCCCTTCC,0.0371
11,CAATTTGC,-0.0517
12,GCTGGTCA,-0.244
13,ATATGCAG,-0.216
14,CCTCAAAG,-0.268
15,AGCAGTGA,0.133
16,AGGGTCGA,0.0324
17,AACTGTCT,-0.0879
18,CCGTTTAG,0.135
19,ATGGTGGA,-0.132
20,GCAAGATA,-0.00203
21,CCTGTGGA,-0.28
22,GTGCTGGA,-0.0428
23,CAGGCACA,-0.171
24,CTAGATGA,-0.196
25,AGAGGTGC,-0.14

row,Sequence,PBM E-score
1,GAGGTTTA,-0.0911
2,GTAATAAC,-0.114
3,ACGCTAAC,-0.141
4,GCGACCGC,0.158
5,ATGCCGGC,0.341
6,GACGCCAC,-0.018
7,ATCGGACC,0.313
8,CCCCCAAC,-0.173
9,GTAGCAGA,-0.114
10,ACCCCGCG,0.32
11,AAGGAAGC,-0.0529
12,TAGAACCA,-0.178
13,AATGTGGT,-0.104
14,CGGACTCA,0.31
15,TAACAAGA,-0.151
16,AATAACCC,0.181
17,GGACTCCC,-0.0707
18,AAATACAG,-0.00964
19,GATATGAC,0.081
20,ACCTTCCA,-0.198
21,AGGGCTTA,-0.315
22,ACGACCTA,-0.00577
23,ATGCAGTG,0.00421
24,AATTCGCT,0.129
25,AGCGTGAG,-0.167

row,Sequence,PBM E-score
1,ATACTCAA,-0.0716
2,CTCCAACA,-0.0174
3,CATACGAC,-0.277
4,CATTAGGC,-0.185
5,AGTTCAAC,0.104
6,CATGCCGA,0.248
7,AGTCTACA,-0.309
8,CAACTGTG,-0.0651
9,AGGGGGCG,-0.106
10,CAATCCCC,0.0676
11,AGACCTAA,-0.155
12,TCTAGAAA,-0.0878
13,TAATACGA,-0.185
14,CTCTATAC,-0.136
15,AGCGCTAA,0.0193
16,AAGTTAAG,-0.126
17,ATTAGTGG,0.067
18,ACCGTTTA,0.0286
19,CTAAACGC,-0.0941
20,GCATGGGC,-0.128
21,ATTTCTGA,-0.26
22,TACCACCA,-0.0345
23,AAGCCCCC,-0.0967
24,ATACTTAG,-0.0301
25,GGCCTGCA,-0.132

row,Sequence,PBM E-score
1,AGTTTTCG,-0.0374
2,GGGGCAAC,-0.155
3,CCCTCATA,-0.212
4,TGCTCGAA,-0.133
5,CCCTAAAC,-0.209
6,CGCGAGCA,0.0715
7,ATAGAATG,-0.00651
8,GTTTCTGA,0.0828
9,AGACTAAC,-0.193
10,ACCGTAAC,-0.134
11,AACCAGAT,0.118
12,CGGACCAA,0.32
13,GGGAGTTA,-0.0534
14,CGGGTCTC,0.23
15,AGTGGTGG,-0.0762
16,GAGCTGTA,-0.207
17,CCCTGTTA,-0.104
18,GGCGGCAC,0.235
19,CATGTGCG,0.0377
20,AAATAAAT,0.0678
21,CGTCACTC,0.00988
22,TCACGCAA,0.00609
23,AGGGGCTA,-0.133
24,CGTGCCAA,-0.0687
25,ATTCAACG,0.174

row,Sequence,PBM E-score
1,ATTGTAAA,0.00411
2,ACCTATAC,-0.22
3,ATGGACTC,-0.0723
4,TATAGATA,-0.135
5,CTGGGTCA,-0.279
6,AACCCTAG,-0.223
7,TGTCGCAA,-0.0293
8,GTCCGATA,0.239
9,CACGGACC,0.378
10,AAAACAGC,0.0129
11,CCCCGGTA,0.122
12,CACCCCCC,-0.276
13,AGTATCCG,0.318
14,ATATCCGA,0.346
15,ACGGAGTC,0.193
16,ATTGTGGC,0.0289
17,AAACGACC,-0.0088
18,AAACCTCA,0.109
19,CGTCCAGC,-0.227
20,GCATGAGC,-0.042
21,ACACAGGA,-0.108
22,CCGTAGTC,0.223
23,GAATGAGC,-0.052
24,GAGCTGGC,-0.0289
25,GAGGACGC,-0.0118

row,Sequence,PBM E-score
1,AAGGATCG,0.0379
2,CCCACAAG,-0.0425
3,CAAGGAGC,-0.0806
4,CATGACTA,-0.249
5,AATTAATG,0.0831
6,ACCTATCC,0.0536
7,CACTTAGC,-0.152
8,ACTTGTGG,-0.138
9,AAATTTTC,0.0282
10,CCTGTTCA,-0.128
11,CAAACTTC,0.0413
12,AGGTACTA,-0.118
13,CCCTGGGC,-0.163
14,CCGGGGCC,0.367
15,CCCCCCCC,-0.411
16,TCGAGACA,-0.0963
17,AAATGACA,-0.0615
18,ATTCCTGA,-0.0913
19,CTGCTACA,-0.0466
20,CGCGGAGA,0.415
21,CCGTGTCA,0.24
22,TCGACTAA,-0.0665
23,CTGTGAGC,-0.133
24,ATCTCGAA,0.0682
25,ATTTCTGG,-0.103

row,Sequence,PBM E-score
1,GGAGGATA,-0.0778
2,ATAATAGC,-0.0254
3,CAACGCAC,-0.0398
4,CTAGTCTC,-0.269
5,TACACGTA,-0.168
6,AATGAGGT,-0.0918
7,CCCTACAC,-0.102
8,CGTCATCA,-0.0841
9,ATTAATAA,0.107
10,ATCTCCGG,0.4
11,ATCCTATG,-0.141
12,AACGAGCA,-0.201
13,GCTCCAAA,-0.143
14,AATAGTCA,0.0148
15,AGCAGGCC,-0.0657
16,AACGTCTC,-0.214
17,CTACGCTA,-0.236
18,ATTTAAGG,-0.0784
19,TGAGGGAA,-0.0248
20,AATCATGG,-0.227
21,CACTTCTA,-0.108
22,CTGATCAC,-0.24
23,AAGAACGA,0.0198
24,CATCGGGG,0.0399
25,AAAGGCTG,-0.156

row,Sequence,PBM E-score
1,CGCACTTA,-0.0129
2,TCGGTACA,0.0197
3,ACGTCAGG,-0.326
4,AAAAGCCA,0.153
5,CCCGCAGG,0.142
6,TAGTACAA,-0.0113
7,CCCGTGAG,0.217
8,CATGGTAC,-0.0651
9,GGATGGGA,0.221
10,AGGTCCTA,-0.23
11,GCTTGGTA,-0.168
12,CAGATGCC,-0.167
13,CCATTCAG,0.0183
14,GACGGGGA,0.207
15,CGCGGGCC,0.379
16,CGTGGAAC,0.231
17,ATTGTGGA,-0.245
18,ACGTGAAC,-0.0534
19,GCTTTGAA,-0.202
20,TGATCCCA,0.0245
21,ATGTAGTC,-0.115
22,CACTACAG,-0.127
23,GGTAACCA,-0.162
24,CGGAGTAC,0.236
25,TCTCTCCA,-0.0978

row,Sequence,PBM E-score
1,TCCCAGAA,-0.145
2,CCTTACTA,0.029
3,ACACTGTA,-0.232
4,ATTATTTA,0.146
5,ATATTCGA,-0.0203
6,ACGTGTAA,-0.14
7,AAGCGCAG,0.179
8,CAAGGACC,-0.0936
9,ATCCTCCC,0.0485
10,CATTACCA,0.00813
11,AGGCGGGG,0.15
12,CTCCGTTA,0.216
13,AATCAATC,0.133
14,GATGTTAA,-0.0551
15,ACAGATAA,-0.0485
16,AGCGTACC,-0.0568
17,CCCGAATC,0.298
18,GTATGCGA,0.0469
19,TCGCCTCA,0.0641
